For this data set, the target named is Escherichia coli (laboratory strain). The data set can be described thus: barcode share on antibiotic plates over drug-free plates; higher = less susceptible. As to the method: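 A pool of E. coli strains, each edited to carry one amino-acid change in an essential protein, was grown for 48 h on minimal glucose agar with or without antibiotic; strain barcodes were sequenced; mean of two replicates.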

The mark [1] stands for this setting: antibiotic: carbenicillin, 2× MIC (3.1 µg/mL).
Setting [2] is: antibiotic: gentamicin, 2× MIC (MIC 0.45 µg/mL).

Residue numbers refer to the chain shown, from its start. Names may count otherwise. ± gives the standard deviation of the averaged measurements. Laboratory Escherichia coli strains with one amino-acid change in an essential protein, pooled on minimal glucose agar with carbenicillin or gentamicin at twice the control MIC (plus kanamycin and chloramphenicol for the plasmids), 48 h. Fold change of barcode share against drug-free plates; higher = less susceptible. Active = above 20 in both replicates (the paper's putatively resistant). '<' = one read or none on drug, '>' = one read or none on a drug-free plate. Shares are relative, so most strains fall below 1 when a few take over. Listed are strains with at least 15 reads on both drug-free plates, and hits; most hits rest on fewer reference reads. Replicate rank correlation about 0.5. Edits are read from barcodes.

B1: purD V335A (protein)
chain: MKVLVIGNGGREHALAWKAAQSPLVETVFVAPGNAGTALEPALQNVAIGVTDIPALLDFAQNEKIDLTIVGPEAPLVKGVVDTFRAAGLKIFGPTAGAAQLEGSKAFTKDFLARHKIPTAEYQNFTEVEPALAYLREKGAPIVIKADGLAAGKGVIVAMTLEEAEAAVHDMLAGNAFGDAGHRIVIEEFLDGEEASFIVMVDGEHVLPMATSQDHKRVGDKDTGPNTGGMGAYSPAPVVTDDVHQRTMERIIWPTVKGMAAEGNTYTGFLYAGLMIDKQGNPKVIEFNCRFGDPETQPIMLRMKSDLVELCLAACESKLDEKTSEWDERASLGVAMAAGGYPGDYRTGDVIHGLPLEEVAGGKVFHAGTKLADDEQVVTNGGRVLCVTALGHTVAEAQKRAYALMTDIHWDDCFCRKDIGWRAIEREQN
As for B1, the “fold change of barcode share” value runs as follows: under setting [1], 0.945 ± 0.3; under setting [2], 0.00547 ± 0.0042.

B2: purD V30D (protein)
chain: B1 chain with V30D, A335V
As for B2, the “fold change of barcode share” value under setting [1] is 101 [active].

B3: purD V30W (protein)
chain: B1 chain with V30W, A335V
Consider B3, for which the “fold change of barcode share” value under setting [1] was determined as 1.6718 ± 0.00082.

B4: purD V335Q (protein)
chain: B1 chain with A335Q
With B4, the “fold change of barcode share” value is 2.02 ± 0.48 under setting [1] and 0.0249 ± 0.028 under setting [2].

B5: purD V335P (protein)
chain: B1 chain with A335P
In the case of B5, the “fold change of barcode share” value under setting [1] was 94 [active].

B6: purD V30P (protein)
chain: B1 chain with V30P, A335V
B6: the “fold change of barcode share” value under setting [1] is 76.9 [active].

B7: purD V30A (protein)
chain: B1 chain with V30A, A335V
In the case of B7, the “fold change of barcode share” value was found to be 1.23 ± 0.17 under setting [1] and 0.0065249 ± 2.6e-07 under setting [2].

B8: purD V335D (protein)
chain: B1 chain with A335D
On to B8, for which, under setting [1], the “fold change of barcode share” value was 119 [active].

B9: purD V30Q (protein)
chain: B1 chain with V30Q, A335V
As for B9, the “fold change of barcode share” value is, setting by setting: under setting [1], 1.09 ± 0.061; under setting [2], 0.00802 ± 0.0012.

B10: purA L75Q (protein)
chain: MGNNVVVLGTQWGDEGKGKIVDLLTERAKYVVRYQGGHNAGHTLVINGEKTVLHLIPSGILRENVTSIIGNGVVQSPAALMKEMKELEDRGIPVRERLLLSEACPLILDYHVALDNAREKARGAKAIGTTGRGIGPAYEDKVARRGLRVGDLFDKETFAEKLKEVMEYHNFQLVNYYKAEAVDYQKVLDDTMAVADILTSMVVDVSDLLDQARQRGDFVMFEGAQGTLLDIDHGTYPYVTSSNTTAGGVATGSGLGPRYVDYVLGILKAYSTRVGAGPFPTELFDETGEFLCKQGNEFGATTGRRRRTGWLDTVAVRRAVQLNSLSGFCLTKLDVLDGLKEVKLCVAYRMPDGREVTTTPLAADDWKGVEPIYETMPGWSESTFGVKDRSGLPQAALNYIKRIEELTGVPIDIISTGPDRTETMILRDPFDA
As to B10, the “fold change of barcode share” value reads like this: under setting [1], 0.493 ± 0.094; under setting [2], 0.00576 ± 0.0054.

B11: purA L75D (protein)
chain: B10 chain with Q75D
Regarding B11, the “fold change of barcode share” value under setting [1] was 140 [active].

B12: purA L75P (protein)
chain: B10 chain with Q75P
With B12, the “fold change of barcode share” value by setting is: under setting [1], 0.655 ± 0.012; under setting [2], below 0.00455.

These data come from the supplement of paper PMC11876631.
